According to paper PMC7855269 (FASEB journal : official publication of the Federation of …, 2020):

Target: T1, GST-His-S-Stx17ΔC (Stx17 1–228) (UniProt P56962 1-228)
T1 sequence (looked up): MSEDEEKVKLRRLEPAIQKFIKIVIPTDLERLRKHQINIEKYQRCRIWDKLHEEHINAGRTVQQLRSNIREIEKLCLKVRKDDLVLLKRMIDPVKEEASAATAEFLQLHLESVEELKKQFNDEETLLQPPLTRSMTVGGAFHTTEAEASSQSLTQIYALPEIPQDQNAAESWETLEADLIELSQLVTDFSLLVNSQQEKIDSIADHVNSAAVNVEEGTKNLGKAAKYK
Test: pull-down

B1: FLAG-WT CFTR (cystic fibrosis transmembrane conductance regulator) (natural protein)
chain: not shown
  EC50: 600 nM
